{
  "source": "paper PMC7432041",
  "target": "T1, Cy3-NeutrAvidin, P02701",
  "T1 chain": "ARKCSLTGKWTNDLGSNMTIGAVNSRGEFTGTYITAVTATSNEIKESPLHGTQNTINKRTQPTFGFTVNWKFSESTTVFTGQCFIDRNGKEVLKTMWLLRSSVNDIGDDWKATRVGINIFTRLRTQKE",
  "experiment": "SEC-MALS; SEC-LS (static and dynamic light scattering, refractive index, absorbance at 280 and 550 nm); Shodex KW 802.5 column at 4 °C, 25 mM Tris pH 7.5, 150 mM NaCl, 4 mM CaCl2, 0.5 mL/min; 50 µL injected",
  "details": "remark: other sources report otherwise",
  "data": [
    {"binder": "Cy3-NeutrAvidin, P02701 25-152 (natural protein, here or on the partner: Cy3 (Cy3-NHS ester, degree of labelling 0.5); Cy3 (Cy3-NHS ester, degree of labelling 0.5)) ARKCSLTGKWTNDLGSNMTIGAVNSRGEFTGTYITAVTATSNEIKESPLHGTQNTINKRTQPTFGFTVNWKFSESTTVFTGQCFIDRNGKEVLKTMWLLRSSVNDIGDDWKATRVGINIFTRLRTQKE", "values": [
      {"measurement": "stoichiometry N", "value": 8}
    ]}
  ]
}
